# Experimental data: PubChem BioAssay AID651820 (National Center for Advancing Translational Sciences (NCATS), 2012)
# About 12,000 (3.5%) of roughly 340,000 compounds were called active. This list was built around the results that the source calls inconclusive (neither active nor inactive); the mix of calls is not that of the screen. The call rests on the fitted dose curve; in most records, active means well fitted inhibition curve with a large enough effect; inconclusive means small, poorly fitted or top-dose-only effect, or another doubt; inactive means no such curve, though single readings can be large or run the other way. No potency is given beside an inconclusive call; the fits are too rough.
# Experiment: qHTS Assay for Inhibitors of Hepatitis C Virus (HCV)
# Conditions: Huh7.5.1 HCVcc-Cre (HCVcc is cell-culture hepatitis C virus) infection, luciferase reporter, 44 h; activity change, negative = inhibition: at 41.8 µM (top of the series) unless noted
# Summary of the method: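 Cells (1,000/well) were plated 4 h before compound, then infected with HCVcc-Cre virus (~0.5 moi). After 44 h further culture, infection was read as luciferase luminescence following a 15 min substrate incubation at room temperature.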
# On the % scale 0 is the no-effect control and ±100 the full control effect; potency means the concentration at half of the fitted maximal effect; tags describe the fitted curve by direction and shape.
Compound,Potency,"activity change, negative = inhibition"
COC(=O)C1CCN(C(=O)COC(=O)c2cc(S(=O)(=O)N3CCOCC3)ccc2C)CC1,"inconclusive [inhibitor, single point]",–
CC1=C(C(=O)Nc2ccccc2C(F)(F)F)C(c2sccc2C)NC(=S)N1 (stereo unspecified),"inconclusive [inhibitor, single point]",–
Cc1ccc2nc(/C(C#N)=C\c3ccc(N4CCCCC4)c([N+](=O)[O-])c3)[nH]c2c1,active: 7.08 µM,–
Fc1ccc(Nc2c3c(nc4ccccc24)CCC3)cc1,active: 14.1 µM,–
COc1ccc(CC(=O)Nc2cccc(S(=O)(=O)N3CCCCCC3)c2)cc1OC,"inconclusive [inhibitor, full curve]",–
Nc1c(C(=O)Nc2ccc3c(c2)OCCO3)nnn1Cc1cccc(Br)c1,"inconclusive [inhibitor, partial curve]",–
CCOc1ccc(NC(=O)C(Cc2ccccc2)N2C(=O)c3cccc4cccc(c34)C2=O)cc1 (stereo unspecified),"inconclusive [inhibitor, partial curve]",–
COc1ccc(CNC(=O)CCC(=O)N2CCN(S(=O)(=O)c3cc([N+](=O)[O-])ccc3C)CC2)cc1,–,inactive: -5.45%
NC(Cc1nc2ccccc2[nH]1)c1ccc(Cl)cc1 (stereo unspecified),–,inactive: 21.3%
COc1cc(C)ccc1NC(=O)Cc1csc(NC(=O)Nc2ccccc2OC)n1,active: 8.91 µM,–
COc1ccc(N2CCN(C(=O)CSc3nc(C)cs3)CC2)cc1,"inconclusive [inhibitor, partial curve, poor fit]",–
COc1ccc(N(CC(=O)Nc2ccccc2Cl)S(=O)(=O)c2ccc(C)cc2)cc1OC,"inconclusive [inhibitor, single point]",–
CCN(CC)S(=O)(=O)c1ccc(NC(=O)c2ccc(NS(C)(=O)=O)cc2)cc1,"inconclusive [inhibitor, single point]",–
Cc1cccc(N=Nc2ccc(O)c3ncccc23)c1,active: 5.62 µM,–
Cc1nn(C)c(C)c1CNC(=O)Nc1ccc2c(c1)OCO2,–,inactive: 15.4%
O=C(NCC1CCCO1)c1cc([N+](=O)[O-])ccc1N1CCC(Cc2ccccc2)CC1 (stereo unspecified),–,inactive: -25.9%
CCNC(=S)Nc1ccc(Oc2ccccc2)cc1,–,inactive: -8.97%
CC(NC(=O)c1cccc(Br)c1)c1ccccc1 (stereo unspecified),–,inactive: -4.92%
C=CCNc1oc(-c2ccc(OC)cc2)nc1C#N,"inconclusive [inhibitor, partial curve]",–
CCOc1ccc(S(=O)(=O)Nc2ccc(S(=O)(=O)N3CCOCC3)cc2)cc1,"inconclusive [inhibitor, single point]",–
Cc1nc2nc(-c3ccc(Cl)cc3)cn2nc1C,–,inactive: 0.07%
CCCCC(C(=O)NC1CCCC1)N(C(=O)c1snc(C(N)=O)c1N)c1ccc(F)cc1 (stereo unspecified),"inconclusive [inhibitor, single point]",–
CN(Cc1ccccc1)C(=O)COC(=O)c1cc(S(=O)(=O)N(C)C)ccc1N1CCCC1,"inconclusive [inhibitor, full curve, poor fit]",–

Compound,Potency,"activity change, negative = inhibition"
O=C(Oc1ccc2ccc(OC(=O)N3CCCCCC3)cc2c1)N1CCCCCC1,"inconclusive [inhibitor, single point]",–
Cc1cc(OCc2nc(N)nc(N)c2-c2ccc(Cl)c(Cl)c2)ccc1[N+](=O)[O-],"inconclusive [inhibitor, full curve]",–
O=C(Oc1nsnc1N1CCOCC1)N1CCCC1,–,inactive: 1.35%
CC1COC(Cn2c3ccccc3c3ccccc32)O1 (stereo unspecified),–,inactive: -26.2%
CCOC(=O)c1c(=O)n(O)c2ccc(OC)cc2[n+]1[O-],"inconclusive [inhibitor, partial curve, poor fit]",–
CCc1noc(C)c1C(=O)Nc1ccc(Cl)c(S(=O)(=O)N2CCCCC2)c1,"inconclusive [inhibitor, single point]",–
CCOC(=O)C(C)Sc1nc(-c2ccc(OC)cc2)nc2c1c(=O)n(C)c(=O)n2C (stereo unspecified),–,inactive: -2.64%
Cc1ccc(CN2C3CCCC2CC(NC(=O)Nc2cccc(F)c2)C3)cc1 (stereo unspecified),–,inactive: -14.8%
O=C(CCl)N(c1ccccc1)c1c[nH]c2ccccc12,active: 1.26 µM,–
O=C(CCNC(=O)c1ccccc1)N/N=C/c1ccc([N+](=O)[O-])cc1,–,inactive: 3.91%
CCOC(=O)c1ccc(NC(=O)CC2C(=O)N(c3cccc(OC)c3)C(=O)N2CCOC)cc1 (stereo unspecified),"inconclusive [inhibitor, partial curve]",–
CC(Oc1ccccc1)C(=O)N=C1SC2CS(=O)(=O)CC2N1Cc1ccccc1 (stereo unspecified),"inconclusive [inhibitor, full curve]",–
O=C(c1c(F)cccc1F)N1CCCC(c2nc(-c3ccc(F)cc3)no2)C1 (stereo unspecified),"inconclusive [inhibitor, single point]",–
Cc1c(NC(=O)/C(C#N)=C/c2ccc(-c3cc(Cl)ccc3Cl)o2)c(=O)n(-c2ccccc2)n1C,"inconclusive [inhibitor, partial curve, poor fit]",–
COC(=O)C(NC(C)=O)(Nc1nc2ccc(C)cc2s1)C(F)(F)F (stereo unspecified),–,inactive: 8.19%
Clc1ccc(CNc2ccc(N3CCN(Cc4ccccc4)CC3)cc2)cc1,active: 10 µM,–
c1ccc2[nH]c(-c3ccncc3)nc2c1,–,inactive: -6.03%
COc1ccc(C(=O)OC(C(=O)c2ccc(C)cc2)c2ccccc2)cc1 (stereo unspecified),–,inactive: 18.5%
Cc1ccc(C)c(S(=O)(=O)N2CCCCC2CCNC(=O)C(=O)NCc2ccccn2)c1 (stereo unspecified),"inconclusive [inhibitor, partial curve]",–
CCCNC(=O)c1ccc(N2CCC3(CC2)CC(c2ccccc2)=NO3)c([N+](=O)[O-])c1,"inconclusive [inhibitor, partial curve]",–
COCCN(Cc1cn[nH]c1-c1ccc2cc(OC)ccc2c1)C(C)C,–,inactive: 1.2%
O=C(/C=C/c1ccc(Cl)cc1)Nc1cc(S(=O)(=O)N2CCOCC2)ccc1N1CCOCC1,"inconclusive [inhibitor, single point]",–
COC(=O)c1cc(NC(=O)c2cc(C)oc2C)cc(C(=O)OC)c1,"inconclusive [inhibitor, partial curve]",–
